Laboratory results published in PubChem BioAssay AID504845 (National Center for Advancing Translational Sciences (NCATS), 2011).
Among all 390,000 compounds or so, about 150 (0.038%) were called active. Inconclusive results, whose numbers are uncertain, are shown with a selection of clear calls. Calls come from the whole dose curve; as a rule, active = well fitted inhibition curve with a large enough effect; inconclusive = small, poorly fitted or top-dose-only effect; inactive = no such curve, though single readings can be large or run the other way. Potencies beside an inconclusive call are fits to weak or partial responses and may not hold up.

biological target: Regulator of G-protein signaling 4 (Homo sapiens) (UniProt P49798); experiment: Inhibitors of Regulator of G Protein Signaling (RGS) 4: qHTS; details: Transcreener GDP fluorescence polarization, RGS4-accelerated GTP hydrolysis; series mostly up to 114 µM; activity change, negative = inhibition: at the top concentration; note: nearly all actives have a fitted effect of over 75% in size
How it was run: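 MLSMR compounds (23 nl, pin-transferred) preincubated 10 min at room temperature with a 500nM (2x) first reagent, then RGS4 at 900nM (2x) plus Transcreener GDP mix added; fluorescence polarization (620/688 nm) read before and after 90 min at 30 °C.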
% is set by controls: 0 for no effect and ±100 for the full control effect; potency is the fitted concentration of half-maximal effect; tags give direction and shape of the fitted curve.

Chain of UniProt P49798 (P49798 whole entry, looked up): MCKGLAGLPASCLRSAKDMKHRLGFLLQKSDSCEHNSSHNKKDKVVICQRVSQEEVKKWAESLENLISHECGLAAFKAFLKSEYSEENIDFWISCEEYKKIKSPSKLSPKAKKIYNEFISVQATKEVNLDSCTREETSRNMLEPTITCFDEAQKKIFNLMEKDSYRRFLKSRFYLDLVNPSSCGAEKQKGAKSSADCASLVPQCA

SMILES	Potency	activity change, negative = inhibition
CC(C)[C@H](NC(=O)OC(C)(C)C)c1nnc(S(=O)(=O)Cc2c(F)cccc2Cl)o1	inconclusive: 17.8 µM [inhibitor, full curve, poor fit]	–
Cc1cc2cc(CN(Cc3ccco3)C(=S)NCC3CCCO3)c(=O)[nH]c2cc1C (stereo unspecified)	inconclusive: 35.5 µM [inhibitor, full curve, poor fit]	–
CCC(=O)c1ccc(OCC(O)CN2CCc3ccccc3C2)cc1 (stereo unspecified)	–	inactive: -3.65%
Oc1ccccc1N=Cc1ccc[nH]1	inconclusive: 100 µM [inhibitor, partial curve, poor fit]	–
O=C(O)CCCCCN1C(=O)C2CCCCC2C1=O (stereo unspecified)	inconclusive: 100 µM [inhibitor, single point]	–
Cc1cc(C)n2c(Br)c(CSc3nc4ccccc4s3)nc2n1	inconclusive: 17.8 µM [inhibitor, partial curve, poor fit]	–
COc1ccc(C)cc1NC(=O)c1nn(-c2ccccc2)cc1OC	inconclusive: 79.4 µM [inhibitor, partial curve, poor fit]	–
COC(=O)NN1C(=O)C(c2ccccc2)=C(c2ccc(Cl)cc2)C1=O	inconclusive: 79.4 µM [inhibitor, partial curve, poor fit]	–
COc1cccc(C2CC(=O)N3CN(C4CCCCC4)CSC3=C2C#N)c1 (stereo unspecified)	inconclusive: 17.8 µM [inhibitor, full curve, poor fit]	–
Nc1nc(SCC(=O)c2cc3ccccc3o2)n[nH]1	inconclusive: 28.2 µM [inhibitor, full curve, poor fit]	–
COc1ccccc1C(OC(=O)c1cccs1)C(=O)NCc1ccco1 (stereo unspecified)	inconclusive: 56.2 µM [inhibitor, partial curve, poor fit]	–
CCOc1cc(/C=N/NC(=O)c2ccc(-c3csc(Nc4ccc(C)cc4)n3)cc2)ccc1OCC(=O)O	inconclusive: 89.1 µM [inhibitor, single point]	–
COc1ccc(NC(=O)c2ccccc2)cc1NS(=O)(=O)c1ccc(F)cc1	–	inactive: -22.4%
Cc1ccc(S(=O)(=O)NCCC(=O)Nc2ccc(C)cc2C(=O)c2ccccc2)cc1	inconclusive: 50.1 µM [inhibitor, partial curve, poor fit]	–
CCOc1ccc(NC(=O)CN2CCN(CC(=O)Nc3ccc4c(c3)OCO4)CC2)cc1	–	inactive: 3.22%
Cc1cccc(CN2CCCC(C(=O)Nc3ccc(-c4cscn4)cc3)C2)c1 (stereo unspecified)	inconclusive: 89.1 µM [inhibitor, single point]	–
O=C(NC1CCCC1)c1ccc(CSc2nc3ccncc3n2Cc2ccc(F)cc2)cc1	inactive	–
N#Cc1nc(-c2ccccc2Cl)oc1N1CCOCC1	–	inactive: 17.3%
O=C(CN1CCCCC1)Nc1ccc(F)c(Cl)c1	–	inactive: 0.66%
COc1ccc2oc(C(=O)OCC(=O)N3CCCC(C)C3)c(C)c2c1 (stereo unspecified)	–	inactive: 17.3%
Cc1cccc(NC(=O)c2ccc(NCC3CCCO3)c([N+](=O)[O-])c2)n1 (stereo unspecified)	–	inactive: 7.12%
COC(=O)[C@@]1(Cc2ccc(F)cc2)[C@H]2c3cc(C(=O)N4CCCC4)n(CCc4ccccn4)c3C[C@H]2CN1C(=O)c1ccccc1	inconclusive: 79.4 µM [inhibitor, partial curve, poor fit]	–

SMILES	Potency	activity change, negative = inhibition
O=C(NCC1COc2ccccc2O1)c1cccc(S(=O)(=O)NCc2ccccc2)c1 (stereo unspecified)	inconclusive: 89.1 µM [inhibitor, single point]	–
COc1ccc(NC(=O)CSc2cc(C(=O)c3nccn3C)c3ccccc3n2)cc1	inconclusive: 17.8 µM [inhibitor, full curve, poor fit]	–
CCOC(=O)c1nn(-c2ccc(F)cc2)cc1O	–	inactive: -16.3%
COc1ccc(NC2=NCCC(=O)N2Cc2cccs2)cc1	–	inactive: -18.9%
CN1c2ccsc2C(O)=C(C(=S)Nc2ccccc2)S1(=O)=O	inconclusive: 79.4 µM [inhibitor, partial curve, poor fit]	–
O=c1c(N2CCCCC2)coc2ccccc12	–	inactive: -8.31%
NS(=O)(=O)c1ccc(NC(CNS(=O)(=O)c2ccccc2)c2ccccc2)cc1 (stereo unspecified)	–	inactive: -5.41%
Cc1ccc(CN2CCN(/N=C/c3cc(Br)cc(Br)c3O)CC2)cc1	inconclusive: 31.6 µM [inhibitor, partial curve, poor fit]	–
Cc1cc(C)c(Cc2c(C)nc3c(C(=O)NCc4ccco4)cnn3c2C)c(C)c1	inconclusive: 79.4 µM [inhibitor, single point]	–
O=C(O)C(CCCCN1C(=O)C2C3C=CC(C3)C2C1=O)N1C(=O)C2C3C=CC(C3)C2C1=O (stereo unspecified)	inconclusive: 79.4 µM [inhibitor, single point]	–
Cc1ccc(NC(=S)NCc2ccccn2)cc1	–	inactive: -51.5%
O=C(N/N=C/c1cc2ccccc2nc1Cl)c1ccncc1	inconclusive: 89.1 µM [inhibitor, single point]	–
COc1cc2c(cc1OC)C(C(N)=O)NCC2 (stereo unspecified)	inconclusive: 89.1 µM [inhibitor, single point]	–
N#Cc1c([N+](=O)[O-])cc([N+](=O)[O-])cc1S(=O)(=O)Cc1ccccc1	inconclusive: 31.6 µM [inhibitor, full curve, poor fit]	–
CN(C)CCCNc1cc(-c2ccccc2)nc2cc(-c3cccc(F)c3)nn12	–	inactive: 0.789%
CN(C)CC1CCC/C(=C\c2ccc(OC(=O)c3ccc(Cl)cc3)cc2)C1=O (stereo unspecified)	inconclusive: 79.4 µM [inhibitor, partial curve, poor fit]	–
COc1cc(C(=O)OCc2cc(=O)oc3c(C)c(C)ccc23)ccc1OC(F)F	inconclusive: 39.8 µM [inhibitor, full curve, poor fit]	–
CCCS(=O)(=O)c1c(S(=O)(=O)CCC)c2cnccn2c1C(=O)c1ccc(CC)cc1	inconclusive: 89.1 µM [inhibitor, single point]	–
CNC(=O)c1ccc2nc(-c3ccco3)c(-c3ccco3)nc2c1	inconclusive: 31.6 µM [inhibitor, full curve, poor fit]	–
CC(=O)N1CCN(C2=NC(=O)/C(=C/c3ccc(OS(=O)(=O)c4ccccc4)cc3)S2)CC1	inconclusive: 79.4 µM [inhibitor, partial curve, poor fit]	–
O=C(O)CN(c1ccccc1[N+](=O)[O-])S(=O)(=O)c1ccccc1	inconclusive: 50.1 µM [inhibitor, partial curve, poor fit]	–
c1cnc2c(SCc3ccc(-c4nnco4)cc3)cccc2c1	inconclusive: 50.1 µM [inhibitor, partial curve, poor fit]	–

SMILES	Potency	activity change, negative = inhibition
COCCSc1ccccc1C(=O)Nc1cc(C)on1	inconclusive: 56.2 µM [inhibitor, partial curve, poor fit]	–
Nc1ccc(N2CCOCC2)c2nonc12	inconclusive: 44.7 µM [inhibitor, partial curve, poor fit]	–
Cc1ccc2c(c1)C(N1CCCC1=O)CC(c1ccco1)N2 (stereo unspecified)	–	inactive: 7.4% [at 11.4 µM]
CC(O)C(O)[C@H]1CNc2nc(N)[nH]c(=O)c2N1 (stereo partly specified)	inconclusive: 23.8 µM [inhibitor, single point]	–
O=C1CSC(=S)N1N=Cc1ccc2c(c1)OCO2	inconclusive: 39.8 µM [inhibitor, partial curve, poor fit]	–
Cn1ccnc1C(=O)c1ccc(Cl)c(S(=O)(=O)N2CCOCC2)c1	–	inactive: 5.06%
COc1ccc(C(=O)/C=C/c2ccc(OCc3ccccc3)cc2)cc1CSCC(=O)O	inconclusive: 44.7 µM [inhibitor, partial curve, poor fit]	–
Cc1cccc(C)c1NC(=O)NCCCN1CCN(c2ccccc2)CC1	inactive	–
CN1CCN(c2oc(-c3ccccc3Cl)nc2S(=O)(=O)c2ccccc2)CC1	–	inactive: 3.01%
COc1ccc(CCNc2ccc(C(CC(N)=O)NC(=O)c3cc(C)cc(C)c3)cc2[N+](=O)[O-])cc1 (stereo unspecified)	inconclusive: 89.1 µM [inhibitor, partial curve, poor fit]	–
COc1cccc(C(=O)c2cn(CC(=O)Nc3cc(Cl)c(OC)cc3OC)c3nc(C)ccc3c2=O)c1	–	inactive: 3.11%
NNC(=O)c1cnn(-c2ccccc2)c1-n1cccc1	inconclusive: 50.1 µM [inhibitor, partial curve, poor fit]	–
CCOC(=O)C[n+]1c(C)sc2ccc(OC)cc21	inconclusive: 20 µM [inhibitor, full curve, poor fit]	–
Cc1ccc(CN2C(=O)C(O)(CC(=O)c3ccc(C)cc3)c3ccccc32)cc1 (stereo unspecified)	inconclusive: 44.7 µM [inhibitor, partial curve, poor fit]	–
O=C1CC(N2CCN(c3ccccn3)CC2)C(=O)N1CC(c1ccccc1)c1ccccc1 (stereo unspecified)	–	inactive: 4.79%
Cc1sc2nc(N)sc2c1C	inconclusive: 79.4 µM [inhibitor, partial curve, poor fit]	–
NS(=O)(=O)c1ccc(NC(=S)NC2CCCCC2)cc1	inconclusive: 11.2 µM [inhibitor, full curve, poor fit]	–
Cc1noc(NS(=O)(=O)c2ccc(NC(=O)c3cnc4n(c3=O)CCS4)cc2)c1C	inconclusive: 70.8 µM [inhibitor, partial curve, poor fit]	–
CC(=O)Nc1ccc(Sc2ccccc2C(=O)Nc2ccc(F)cc2)cn1	inconclusive: 50.1 µM [inhibitor, partial curve, poor fit]	–
CCn1cc(CCCC(=O)NCc2cccc(OC)c2)c2ccccc21	–	inactive: 1.57%
CC[n+]1c(/C=C/C=C/N(C(C)=O)c2ccccc2)sc2cc(OC)ccc21	inconclusive: 50.1 µM [inhibitor, partial curve, poor fit]	–
CCN(CC)c1ccc(/C=C2\SC(=O)N(C(C)C)C2=O)o1	inconclusive: 11.2 µM [inhibitor, full curve, poor fit]	–
